We go through 39 compounds from PubChem BioAssay AID1745853 (National Center for Advancing Translational Sciences (NCATS), 2022).

SMILES strings stand for the structures. The list shows a part of the results. The main result of the screen is listed elsewhere. These columns were measured beside it and carry no call.

What all share (test): Primary Screen for Target Class Profiling of Small Molecule Inhibitors of Methyltransferases
Assay [1] concerns the target Glycine N-methyltransferase (Homo sapiens) (UniProt Q14749). The following applies: purified enzyme, MTase-Glo SAH luminescence; measured here: GNMT inhibition; at 40 µM; stronger effect = lower value. The essentials:
(§1)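 Each enzyme was reacted with SAM and its substrate, with compounds tested once at 40 uM; SAH formed was read by MTase-Glo luminescence.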

Assay [2] deals with Guanidinoacetate N-methyltransferase (Homo sapiens) (UniProt Q14353). The following applies: purified enzyme, MTase-Glo SAH luminescence; measured here: GAMT inhibition; at 40 µM; stronger effect = lower value. The essentials: as §1
The target in assay [3] is Histamine N-methyltransferase (Homo sapiens) (UniProt P50135). The conditions noted are these: purified enzyme, MTase-Glo SAH luminescence; measured here: HNMT inhibition; at 40 µM; stronger effect = lower value. Summed up: as §1
In assay [4] the target is Nicotinamide N-methyltransferase (Homo sapiens) (UniProt P40261). The following applies: purified enzyme, MTase-Glo SAH luminescence; measured here: NNMT inhibition; at 40 µM; stronger effect = lower value. Summed up:
as §1

Assay [5] concerns the target Phenylethanolamine N-methyltransferase (Homo sapiens) (UniProt P11086). The conditions noted are these: purified enzyme, MTase-Glo SAH luminescence; measured here: PNMT inhibition; at 40 µM; stronger effect = lower value. The essentials: as §1
On the % scale 0 is the no-effect control and ±100 the full control effect.

Take `NC(C(=O)N[C@@H]1C(=O)N2C(C(=O)O)=C(Cl)CS[C@H]12)c1ccccc1` (stereo not given in full): the activity change, negative = inhibition in assay [1] was -15.4%; in assay [2], 14.1%; in assay [3], 10.9%; in assay [4], -1.67%; in assay [5], 6.5%.
Taken in the same sequence, the figures for `CCOCCCNC(=O)N1Cc2c(sc3c2CCCC3)-n2cccc2C1c1cccc(OC)c1` (stereo not given) were -7.94%, 1.87%, 1.54%, -15.7% and -4.04%.
Turning to `CCOc1ccc(CCN2C(=O)c3ccc(-c4ccco4)n3CC2(C)C(=O)NCc2ccc(Cl)cc2)cc1` (stereo not given), the activity change, negative = inhibition in assay [1] was -3.21%; in assay [2], 4.21%; in assay [3], 4.44%; in assay [4], -4.22%; in assay [5], -3.92%.
For `Cc1ccc(Cn2c(=O)c3ccccc3n3c(=O)n(CC(=O)Nc4cc(C)cc(C)c4)nc23)cc1` the same measures were 2.51%, 2.22%, 5.19%, -0.456% and -0.393%.
Taken in the same sequence, the figures for `Cc1oncc1C(=O)Nc1ccc(C(F)(F)F)cc1` were 6.07%, 9.03%, 9.3%, -8.27% and 0.689%.
In the case of `Nc1ccn(C2CO[C@H](CO)O2)c(=O)n1` (stereo not given in full), the activity change, negative = inhibition in assay [1] is -4.88%; in assay [2] it was -1.18%; in assay [3], 0.663%; in assay [4], -13.4%; in assay [5], 1.26%.
Taken in the same sequence, the figures for `CC(C)(O)C#Cc1ccc(C(=O)N2CCOCC2CC(=O)O)o1` (stereo not given) were -2.98%, -9.7%, -2.23%, -5.88% and -6.1%.
For `c1ccc(C(OC2CCN(CCCc3nn[nH]n3)CC2)c2ccccc2)cc1` the same measures were 4.93%, -2.91%, 5.34%, -16.4% and -1.51%.
Taken in the same sequence, the figures for `CCc1cc2c(cc3n2CC(C)(C(=O)NC2CCCCCC2)N(c2cccc(F)c2)C3=O)s1` (stereo not given) were 0.604%, 2.8%, 3.75%, 4.72% and -0.809%.
With `CC(C)CCNC(=O)C1(C)Cn2nc(C(=O)NCCCN3CCCC3)cc2C(=O)N1C` (stereo not given), the activity change, negative = inhibition stood at 5.53% in assay [1]; 0% in assay [2]; 2.56% in assay [3]; 10.1% in assay [4]; 4.38% in assay [5].
Consider `c1ccc2c(c1)OCC(CCn1ccnc1-c1cc3n(n1)CCNC3)O2` (stereo not given), for which the activity change, negative = inhibition in assay [1] is -2.78%; in assay [2] it was -2.04%; in assay [3], -2.44%; in assay [4], -5.03%; in assay [5], -10.7%.
As for `COC(=O)NC(C)C(=O)N1Cc2cnc(Cc3ccc(OC)cc3)nc2C1` (stereo not given), the activity change, negative = inhibition was -1.93% in assay [1]; -0.704% in assay [2]; -1.03% in assay [3]; -0.591% in assay [4]; 1.94% in assay [5].
For `COc1ccccc1NC(=O)CSc1nnc2n(CCc3ccccc3)c(=O)c3ccccc3n12` the same measures were 1.65%, 0.578%, 8.41%, 0.002% and 1.85%.
For `O=C(Nc1cccc(C(F)(F)F)c1)N[C@H]1CO[C@H]2[C@@H]1OC[C@@H]2n1cc(-c2ccccc2)nn1` the same measures were -5.08%, 6.57%, -0.199%, -1.36% and -6.34%.
For `O=C1CC(Cc2ccccc2)CN1CC(=O)N1CCOC2(CCCC2)C1` (stereo not given) the same measures were -4.5%, -2.73%, -3.36%, -6.65% and -5.37%.
For `COc1ccc(NC(=O)N[C@H]2[C@H](O)[C@@H](N(C)CCc3ccccn3)[C@@H]3OC[C@H]2O3)cc1`, the activity change, negative = inhibition is -8.87% in assay [1]; -7.45% in assay [2]; -4.81% in assay [3]; -14.8% in assay [4]; -6.77% in assay [5].
For `COc1ccc(CNC(=O)c2cc3n(n2)CC(C)(C(=O)NCc2ccccc2)N(C)C3=O)c(OC)c1` (stereo not given), the activity change, negative = inhibition in assay [1] turned out to be 8.41%; in assay [2] it was 0.224%; in assay [3], 10.7%; in assay [4], 8.79%; in assay [5], 6.26%.
Turning to `CNC(=O)N1CCC(C2CCN(C(=O)c3ccc4ccccc4n3)C2)CC1` (stereo not given), the activity change, negative = inhibition in assay [1] was -5.11%; in assay [2], -4.53%; in assay [3] it was 0.171%; in assay [4] it was -11.8%; in assay [5], 5.11%.
For the compound `O=S(=O)(Nc1ccccc1Cl)c1ccc2[nH]c3c(c2c1)CCCC3`, the activity change, negative = inhibition in assay [1] is -6.08%; in assay [2], 0.099%; in assay [3], -1.35%; in assay [4] it was -9.85%; in assay [5], -0.536%.
Taken in the same sequence, the figures for `CCn1c2ccccc2c2cc(Nc3ccnc(NCCCN4CCOCC4)n3)ccc21` were -7.4%, 9.9%, -83.5%, -71.2% and -23.2%.
For the compound `Cc1ccccc1NC(=O)Cn1c(=O)oc2cc(S(=O)(=O)N3CC(C)CC(C)C3)ccc21` (stereo not given), the activity change, negative = inhibition was 0.397% in assay [1]; 3.48% in assay [2]; 1.58% in assay [3]; 3.01% in assay [4]; -1.86% in assay [5].
Consider `CC1(C(=O)NC2CCCCCCC2)Cn2c(cc3occc32)C(=O)N1C1CCCCC1` (stereo not given), for which the activity change, negative = inhibition was 4.46% in assay [1]; 0% in assay [2]; 5.45% in assay [3]; -0.21% in assay [4]; 0.081% in assay [5].
Taken in the same sequence, the figures for `CC(=O)NC(C)c1cnc(-c2cnc(Oc3ccc(OC(C)C)cc3)s2)s1` (stereo not given) were 0.479%, 8.67%, 6.03%, -12.3% and 2.1%.
As to `CC1CCC(NC(=O)C2(C)Cn3c(ccc3-c3ccccc3)C(=O)N2Cc2cccc(F)c2)CC1` (stereo not given), the activity change, negative = inhibition in assay [1] was found to be 4.66%; in assay [2], 0%; in assay [3], 1.69%; in assay [4], 2.67%; in assay [5] it was 0.062%.
Taken in the same sequence, the figures for `O=C(NCC1(N2CCN(c3ccccc3)CC2)CCOCC1)c1cccnc1Sc1ccccc1` were 5.42%, 2.29%, 8.95%, -15.4% and -0.074%.
On to `O=C(CCC1CCN(S(=O)(=O)c2ccccc2F)CC1)NCCCN1CCCC1=O`, for which the activity change, negative = inhibition amounted to 15.8% in assay [1]; 1.19% in assay [2]; 12.8% in assay [3]; 5.59% in assay [4]; 9.44% in assay [5].
Taken in the same sequence, the figures for `COC(=O)N1CCCCC1C(=O)N1CCC2(CC1)c1nc[nH]c1CCN2C` (stereo not given) were -0.229%, 1.71%, 1.1%, 3.62% and 5.38%.
For `CCNc1ncnc2sc3c(c12)CCN(C(=O)CCOC)C3` the same measures were -21.8%, -10.1%, -6.95%, -20.5% and -25.1%.
For `O=C(c1ccc2c(=O)nc3c(-c4ccccc4F)n[nH]n3c2c1)N1CCN(c2ccc(F)cc2)CC1` the same measures were -14.1%, 3.49%, -0.576%, -4.14% and 0.667%.
In the case of `CCOc1ccc(CCNC(=O)CCc2nnc3n(Cc4ccc(C)cc4)c(=O)c4ccccc4n23)cc1`, the activity change, negative = inhibition was -0.325% in assay [1]; 0% in assay [2]; -3% in assay [3]; -0.844% in assay [4]; -12.2% in assay [5].
Regarding `O=C(/C=C/n1cnc(-c2cc(C(F)(F)F)cc(C(F)(F)F)c2)n1)NNc1cnccn1`, the activity change, negative = inhibition in assay [1] is -0.102%; in assay [2], 6.59%; in assay [3], 11.2%; in assay [4], -6.11%; in assay [5] it was 5.72%.
Taken in the same sequence, the figures for `CCC1(C(=O)O)CCCN(Cc2ccccc2)C1` (stereo not given) were -0.596%, -0.899%, 0.554%, 2.92% and 3.97%.
For `O=C1[C@H](O[C@@H]2O[C@H](CO)[C@@H](O)[C@H](O)[C@H]2O)Oc2ccccc2N1O` the same measures were 3.09%, 3.26%, 7.25%, -6.84% and -2.9%.
Taken in the same sequence, the figures for `CN1C(=O)CN(Cc2ccccc2C#N)C(=O)c2ccccc21` were -0.33%, -1.89%, -1.09%, -3.87% and -2.52%.
`Cc1cc2nc3n(c(=O)c2n1CC(=O)NC1CCCCC1)CCCCC3`: the activity change, negative = inhibition was -6.22% in assay [1]; -9.72% in assay [2]; -3.54% in assay [3]; -13.3% in assay [4]; 0.272% in assay [5].
Taken in the same sequence, the figures for `CSc1ccc(CCN2C(=O)CSc3c(c4ccccc4n3C)C2C(=O)NCCC(C)C)cc1` (stereo not given) were 1.01%, 0.108%, -2.97%, -5.48% and -1.05%.
Taken in the same sequence, the figures for `O=C1CO[C@H]2CN(C3CCOCC3)C[C@H]2N1c1ccccc1` were -2.75%, -3.32%, -2.33%, -7.02% and -0.978%.
Take `CCCn1ncc(CN2CCCC23CCN(c2ncccn2)CC3)c1C`: the activity change, negative = inhibition was -7.94% in assay [1]; -5.67% in assay [2]; -6.35% in assay [3]; -11.3% in assay [4]; -18.5% in assay [5].
For `Cc1ccc(S(=O)(=O)NCc2ccc(C(=O)NCCN(Cc3ccccc3)C(C)C)cc2)cc1` the same measures were 6.21%, 11.7%, -7.38%, -13.7% and -3.37%.
